# Experimental data reported in PubChem BioAssay AID1468 (National Center for Advancing Translational Sciences (NCATS), 2008).
# Among all 280,000 compounds or so, about 1,100 (0.39%) were called active. Inconclusive results, whose numbers are uncertain, are shown with a selection of clear calls. The call rests on the fitted dose curve; in most records, active means well fitted inhibition curve with a large enough effect; inconclusive means small, poorly fitted or top-dose-only effect, or effect the other way; inactive means flat fitted curve, though single readings scatter. No potency is given beside an inconclusive call; the fits are too rough.
# Target: Microtubule-associated protein tau (Homo sapiens) (UniProt P10636)
# Chain of UniProt P10636 (P10636 whole entry, looked up): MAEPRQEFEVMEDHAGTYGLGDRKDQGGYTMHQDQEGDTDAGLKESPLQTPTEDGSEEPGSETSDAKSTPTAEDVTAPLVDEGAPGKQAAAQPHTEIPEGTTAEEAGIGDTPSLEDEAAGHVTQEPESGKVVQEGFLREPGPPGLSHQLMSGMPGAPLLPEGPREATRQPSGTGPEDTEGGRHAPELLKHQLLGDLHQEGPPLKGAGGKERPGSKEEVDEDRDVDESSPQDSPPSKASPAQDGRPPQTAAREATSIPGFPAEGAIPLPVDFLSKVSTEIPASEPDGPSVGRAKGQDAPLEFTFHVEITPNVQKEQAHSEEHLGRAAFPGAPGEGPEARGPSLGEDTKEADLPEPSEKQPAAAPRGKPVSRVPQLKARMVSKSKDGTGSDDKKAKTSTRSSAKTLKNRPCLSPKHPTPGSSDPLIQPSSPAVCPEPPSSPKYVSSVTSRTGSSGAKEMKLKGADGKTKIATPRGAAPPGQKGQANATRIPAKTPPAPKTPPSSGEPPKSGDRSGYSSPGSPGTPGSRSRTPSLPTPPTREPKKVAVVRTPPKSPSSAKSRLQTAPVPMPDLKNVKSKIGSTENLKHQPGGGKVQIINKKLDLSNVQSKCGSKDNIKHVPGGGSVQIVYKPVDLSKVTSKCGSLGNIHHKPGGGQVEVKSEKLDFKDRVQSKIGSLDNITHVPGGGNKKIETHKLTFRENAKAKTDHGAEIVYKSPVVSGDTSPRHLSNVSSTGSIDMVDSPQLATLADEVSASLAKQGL
# Experiment: qHTS for Inhibitors of Tau Fibril Formation, Fluorescence Polarization; further: nearly all actives have a fitted effect of over 55% in size
# Conditions: K18 P301L tau heparin fibrillization, Alexa594 FP, 6 h; series mostly up to 57.7 µM; activity, negative = inhibition: at the top concentration
# Method in brief: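 Heparin (20 uM) drove fibril formation of recombinant tau K18 P301L, 15 uM unlabeled with 0.24 uM Alexa 594 label, for 6 hr at 37 C in 100 mM sodium acetate pH 7. Fluorescence polarization (555/632 nm) read 1 hr after 30 uM ThT.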
# On the % scale 0 is the no-effect control and ±100 the full control effect; potency means the concentration at half of the fitted maximal effect; tags describe the fitted curve by direction and shape.
SMILES,"activity, negative = inhibition",Potency
O=C(Nc1ccc(C2=NCCN2)cc1)c1ccc(C(=O)Nc2ccc(C3=NCCN3)cc2)c(Cl)c1,inactive: 2.12%,
CC(C)(C)NC(=O)c1ccccc1-c1nc2ccccc2s1,,"inconclusive [inhibitor, single point]"
O=C(N/N=C/c1cccc(OCc2ccccc2)c1)c1cccs1,,"inconclusive [inhibitor, partial curve]"
CCc1ccc(CNC(=O)c2cc3cc4ccc(OC)cc4nc3o2)cc1,,"inconclusive [inhibitor, single point]"
COc1ccc(C(=O)Nc2nc(-c3nnn(-c4cc(OC)ccc4OC)c3C)ns2)cc1,,"inconclusive [inhibitor, partial curve]"
Cc1c(C(=O)Oc2ccc(Br)cc2)sc2ncn(Cc3ccccc3F)c(=O)c12,inactive: 2.49%,
Cc1ccc(/C=C/C(=O)Nc2cc(C)on2)cc1,inactive: 6.85%,
O=c1c2oc3ccccc3c2ncn1Cc1ccc(Cl)cc1,inactive: -7.43%,
COc1ccc(-c2coc3cc(OC(=O)N4CCOCC4)ccc3c2=O)cc1,inactive: -6.75%,
CC1Cc2ccccc2N1C(=O)CSC1=NCCS1 (stereo not given),,"inconclusive [inhibitor, full curve, poor fit]"
CCCCCCc1cc2cc(-c3nnc(-c4ccccc4OC)o3)c(=O)oc2cc1O,inactive: -5.29%,
Clc1ccc(CN2CCN(c3ncnc4scc(-c5cccs5)c34)CC2)cc1,inactive: -20.3%,
CN(C(=O)CSc1nc2ccc(NC(=O)c3cccs3)cc2s1)c1ccccc1,,"inconclusive [inhibitor, partial curve]"
S=C(NCc1ccccc1)N1CCn2cccc2C1c1ccncc1 (stereo not given),,"inconclusive [inhibitor, single point]"
c1ccc(-c2nnc(-c3ccccn3)c(-c3ccccn3)n2)nc1,inactive: -1.55%,
O=C1N=C2N(CCN3CCCCC3)c3ccccc3N2/C1=C\c1ccc([N+](=O)[O-])o1,,"inconclusive [inhibitor, partial curve, poor fit]"
CC(C)C[C@H](NC(=O)OC(C)(C)C)c1nnc(SCC(=O)Nc2ccc(Br)cc2)o1,,"inconclusive [inhibitor, partial curve]"
Cc1ccc(C)c(NC(=O)Cn2c(=O)n(CCCS(=O)(=O)C3CCCCC3)c(=O)c3ccccc32)c1,inactive: -9.13%,
COc1cc2c(cc1NC(=O)CSc1nc3ccc(C)cc3[nH]1)oc1ccccc12,,"inconclusive [inhibitor, single point]"
CS/C(=C\[N+](=O)[O-])Nc1ccc(Cl)cc1,,"inconclusive [inhibitor, partial curve]"
c1ccc(C2COC(c3cccs3)=N2)cc1 (stereo not given),,"inconclusive [inhibitor, single point]"
COC(=O)c1ccc(-n2c(C)cc(C(=O)COC(=O)CNS(=O)(=O)c3ccc(C)cc3)c2C)cc1,,"inconclusive [activator, partial curve]"
Oc1ccc(-c2nccc(-c3ccc(Cl)cc3)n2)cc1,,"inconclusive [inhibitor, partial curve, poor fit]"
O=C(/C=C/c1ccc(O)c(O)c1)OCCc1ccccc1,,"inconclusive [inhibitor, single point]"

SMILES,"activity, negative = inhibition",Potency
CNC(=O)C1CCC(Cn2c(=O)c3sccc3n(CC(=O)Nc3cc(C)cc(C)c3)c2=O)CC1 (stereo not given),inactive: -1.48%,
COc1cccc(NC(=O)Cn2nc(-c3ccncc3)ccc2=O)c1,,"inconclusive [inhibitor, single point]"
COc1cccc(-c2nc(C(N)=O)c3[nH]c(=O)n(-c4cccc(Cl)c4)c3n2)c1OC,,"inconclusive [inhibitor, single point]"
O=S(=O)(NC1CCCC1)c1ccc(S(=O)(=O)N(Cc2cccs2)CC2CCCO2)cc1 (stereo not given),inactive: 0.0753%,
COc1ccc(CN2CCc3nc(N4CCN(c5ccc(F)cc5)CC4)ncc3C2)c(OC)c1OC,inactive: -1.37%,
O=C(COC(=O)COc1ccccc1[N+](=O)[O-])Nc1cccc(Br)c1,,"inconclusive [inhibitor, single point]"
O=C(/C=C/c1ccc(Cl)cc1Cl)n1cccn1,,"inconclusive [inhibitor, full curve]"
CC(=O)c1cc(F)c(N2CCN(C(=O)COc3ccc(F)cc3)CC2)cc1C,inactive: 5.83%,
[C-]#[N+]c1cc(-c2ccncc2)c(C)[nH]c1=O,inactive: -3.26%,
Oc1c(/C=C/C=C/C=Nc2ccccc2)sc(=S)n1Cc1ccccc1,,"inconclusive [inhibitor, single point]"
C#CCCCO/N=C1/C[C@@H](O)[C@@H](O)[C@@H]2[C@@H]3C(=O)N(C[C@@H]4CCCO4)C(=O)[C@H]3CC[C@@H]12,,"inconclusive [inhibitor, full curve]"
NNc1nncc2ccccc12,,"inconclusive [inhibitor, partial curve]"
O=C(Nc1nc(-c2cc3ccccc3oc2=O)cs1)c1ccco1,inactive: -14.4%,
CCOc1cccc(C(=O)NC(=S)Nc2ccccc2)c1,inactive: -5.25%,
COc1ccc(NC(=O)Cn2cc(S(=O)(=O)c3ccccc3)c(=O)c3cc(C)ccc32)cc1Cl,,"inconclusive [inhibitor, partial curve]"
S=C(Nc1ccccc1)Nc1ccc(Br)cn1,inactive: 4.1%,
Cc1nc(Nc2ccc3c(c2)OCCO3)c2oc3ccccc3c2n1,,"inconclusive [activator, partial curve, poor fit]"
O=C(OCC(=O)N1CCCc2ccccc21)c1cncc(Br)c1,inactive: 6.44%,
CC(NCCC(Cc1ccccc1)c1ccco1)c1ccccc1 (stereo not given),inactive: -0.245%,
CC(=O)N1CCc2cc(C(=O)CN3CCCN(Cc4ccc(F)cc4)C3)ccc21,,"inconclusive [inhibitor, single point]"
O=S(=O)(NCCc1csc2nc(-c3ccccc3)nn12)c1ccc(Oc2ccccc2)cc1,,"inconclusive [inhibitor, partial curve]"
CC/C(=N\NC(=O)c1ccc(CN(C)S(=O)(=O)c2ccc(C)cc2)cc1)c1ccc(OC(F)F)cc1,inactive: -3.66%,
CC(C)c1nnc(NC(=O)C2CCN(S(=O)(=O)c3ccc(-n4cnnn4)cc3)CC2)s1,,"inconclusive [inhibitor, single point]"
Cc1cccc(Cn2cc(SCC(=O)Nc3nccs3)c3ccccc32)c1,,"inconclusive [inhibitor, single point]"

SMILES,"activity, negative = inhibition",Potency
CCN(CC(=O)c1c(N)n(C)c(=O)n(C)c1=O)c1cccc2ccccc12,,"inconclusive [activator, single point]"
COc1cc(C2C(C(=O)Nc3ccccc3C)=C(C)Nc3nc(SCc4cc(C)ccc4C)nn32)ccc1O (stereo not given),inactive: -8.09%,
CCOC(=O)c1ccc(N2N=C(C)/C(=C/C=C/c3ccco3)C2=O)cc1,,"inconclusive [inhibitor, partial curve]"
Cc1ccc(NC(=O)c2nc[nH]c2C(=O)N2CCN(c3ccccc3)CC2)cc1,inactive: -3.17%,
Oc1ccc(-c2cn3c(n2)SCC3)cc1O,,"inconclusive [inhibitor, partial curve]"
C=CC1=C2C=C(C3CC3)N(C3CC3)C=C2C(=O)C(C)(OC(=O)c2ccco2)C1=O (stereo not given),inactive: -10.7% [at 11.6 µM],
C1CNCCN1,,"inconclusive [inhibitor, single point]"
CSc1nsc(/C=C/Nc2ccc(O)cc2C)c1C#N,,active: 25.1 µM
Cc1cc(S(=O)(=O)Nc2ccc3oc4c(c3c2)CCCC4)ccc1Cl,,"inconclusive [inhibitor, partial curve]"
CCOC(=O)c1c(C)[nH]c(C(=O)N/N=C/c2ccc(Br)cc2)c1C,,"inconclusive [inhibitor, single point]"
Fc1cccc(C[n+]2csc3ccccc32)c1,,"inconclusive [inhibitor, partial curve]"
CCOC(=O)c1c(/N=C/c2cc(C)ccc2O)sc2c1CCN(C)C2,inactive: 1.72%,
O=C(c1ccc(Cl)c(S(=O)(=O)N2CCCCCC2)c1)N1CCN(c2ccccc2O)CC1,,"inconclusive [activator, partial curve, poor fit]"
CSc1cccc(NC(=O)/C=C/c2ccccc2)c1,,"inconclusive [inhibitor, partial curve]"
CC1Cc2cc(S(=O)(=O)NCc3ccc(Cl)cc3)ccc2N1C(=O)C1CCC1 (stereo not given),,"inconclusive [inhibitor, single point]"
COc1ccc(NS(=O)(=O)c2ccc3c(c2)[C@H]2C=CC[C@H]2[C@@H](c2ccc(C(=O)O)cc2)N3)cc1,inactive: -17.4%,
CN(C)NC(=S)Nc1ccc2nc(-c3ccccn3)c(-c3ccccn3)nc2c1,,"inconclusive [inhibitor, partial curve]"
O=C1C=C(NCc2ccccc2)c2ccccc2C1=O,,"inconclusive [inhibitor, partial curve]"
COc1ccc(C(C)C)cc1S(=O)(=O)n1cnc(C)c1,inactive: 3.6%,
CCOc1cc(/C=N/NC(N)=O)cc(Br)c1OCc1ccccc1F,,"inconclusive [inhibitor, single point]"
Cc1nn(-c2ccccc2)c(N2CCCC2)c1/C=N/NC(=O)c1cc(-c2ccccc2)nc2ccccc12,inactive: 9.65%,
COc1ccc(/C=N/NC(=O)c2cc(-c3cccnc3)nc3ccccc23)c(OC)c1,,"inconclusive [inhibitor, partial curve, poor fit]"
